# Reference: PMC12040169 (PLOS Biology, 2025)
# The other results are listed elsewhere or left out.
# Test system: T1, C. trachomatis L2/434/Bu expressing GFP (CTL2-GFP)
# T1 construct: L2/434/Bu GFP intracellular growth in HeLa cells
# Design: species or system HeLa; C. trachomatis total inclusion area by high-content imaging, normalised to DMSO
# Details: total inclusion area; 28.5 h, 10 µM; inhibitor
# Method in brief: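 High-content imaging followed the bulk GFP/resorufin measurement: fixed, Hoechst-stained cells were scored for GFP inclusions and host nuclei per well. Total inclusion area and count served as growth proxies, nuclei number as the viability proxy. MIC calculation matched the bulk assay.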
row,Structure (SMILES),% of control remaining
1,O=[N+]([O-])c1cnc(NCCCn2ccnc2)c([N+](=O)[O-])c1 [CBK262511],82.6379
2,CCc1c(C)sc(NC(=O)C2C3C=CC(C3)C2C(=O)O)c1C(N)=O (centres unmarked) [CBK265433],91.1642
3,CCOC(=O)C(CNC(=O)c1c(CC)noc1C)Cc1ccccc1 (centres unmarked) [CBK305961],71.0361
4,CS(=O)(=O)Nc1cccc(-c2nnn[nH]2)c1 [CBK062150],99.3529
5,O=C(CSc1nnc(-c2ccncc2)n1-c1ccccc1)N/N=C/c1ccco1 [CBK262828],109.162
6,O=C(O)CSc1cccc2cccnc12 [CBK126918],119.533
7,COc1ccc(-c2cncc(N3CCN(C)CC3)n2)cc1 [CBK065378],83.3322
8,CCN(CC)C(=O)c1sc2nc(-c3cccs3)nc(C)c2c1N [CBK115366],97.332
9,COc1ccc(CCN2CCN(c3nccnc3OCc3cc(C)on3)CC2)cc1OC [CBK084207],72.1314
10,O=C(Nc1ccc2[nH]ccc2c1)c1c(F)ccc(Cl)c1F [CBK159673],92.2659
11,COc1cc(CN2CCc3c([nH]c4ccccc34)C2)c([N+](=O)[O-])cc1OC [CBK261588],109.334
12,OC1CCC(Nc2cncc(-c3cccc(Cl)c3)n2)CC1 (centres unmarked) [CBK066031],76.0564
13,Cc1cc(NS(=O)(=O)c2ccc(Cl)c(Cl)c2)n(C)n1 [CBK067254],123.287
14,COc1ccc(Cl)c(NC(=O)NCCN2CCN(c3ccccc3)CC2)c1 [CBK268899],109.43
15,CC(C)c1nnc(CCC(=O)N2CCC(c3ccccc3)C2)o1 (centres unmarked) [CBK281925],109.511
16,Cn1cc(CCC(=O)N2CCc3[nH]c4ccc(Cl)cc4c3C2)cn1 [CBK304636],41.4953
17,O=C(O)c1sc2cc(C(F)(F)F)cnc2c1-c1cccs1 [CBK089890],88.5437
18,O=C(NCCN1CCOCC1)c1cc(-c2ccc(F)cc2)nc2ccc(Br)cc12 [CBK294450],122.753
19,Clc1nccnc1NCCOc1ccccc1 [CBK113564],77.8549
20,O=C(O)CCCC(=O)Nc1ccccc1-c1ccccc1 [CBK231405],70.3508
21,O=C(Cc1cc(F)c(F)c(F)c1)Nc1cnccn1 [CBK161764],81.0501
22,O=C(Nc1nc2ccccc2s1)c1cccnc1Cl [CBK071983],90.4122
23,O=[N+]([O-])c1cc(S(=O)(=O)Nc2ccc(C(O)(C(F)(F)F)C(F)(F)F)cc2)ccc1Cl [CBK062106],86.4203
24,O=C(Nc1ccc(C(=O)OCC(=O)c2cccc3ccccc23)cc1)c1ccccc1 [CBK265518],87.1115
25,CN1C(=O)CC2(C1=O)C(=O)N(CCCOc1ccc(F)cc1)c1ccccc12 (centres unmarked) [CBK075513],93.4736
26,CCOC(=O)C1CCCN(S(=O)(=O)c2sc3ccc(Cl)cc3c2C)C1 (centres unmarked) [CBK154797],85.1333
27,Cc1onc(-c2ccccc2)c1C(=O)Nc1cccc(S(=O)(=O)N2CCOCC2)c1 [CBK268159],106.95

row,Structure (SMILES),% of control remaining
1,COc1ccc(CNC(=O)c2cc(S(=O)(=O)N3CCCC3)cs2)cc1 [CBK307576],58.9064
2,CN(C)CCN(C)c1cncc(-c2cc3ccccc3o2)n1 [CBK066028],88.9405
3,CC1CC1C(=O)NCC(=O)Nc1nc2ccc(OC(F)(F)F)cc2s1 (centres unmarked) [CBK297874],65.2877
4,O=C(O)CCCC(=O)Nc1ccccc1-c1nc2ccccc2[nH]c1=O [CBK280451],99.2754
5,O=C(O)CCCCCNS(=O)(=O)c1ccc(Cl)cc1 [CBK261940],85.0129
6,Cc1noc(C)c1CCC(=O)NC(Cc1ccncc1)C1CC(O)C1 (centres unmarked) [CBK306790],74.2672
7,O=C(O)c1ccccc1C(=O)Nc1cccc(-c2noc(-c3cccc(F)c3)n2)c1 [CBK299813],43.9528
8,Nc1ncc(-c2cccnc2)nc1NC1CCC(O)CC1 (centres unmarked) [CBK063840],93.8627
9,Cc1nc2ccccc2n1CCNC(=O)c1ccccc1SCc1ccc(C#N)cc1 [CBK297082],113.792
10,CC(C)(C)OC(=O)NCCC(=O)Oc1ccc2c3c(c(=O)oc2c1)CCCC3 [CBK265008],110.881
11,Clc1ccc(Nc2ncnc3ccccc23)cc1 [CBK072625],105.086
12,O=C(NCc1cc(C2CC2)[nH]n1)C1(c2ccccc2F)CC1 [CBK283140],118.167
13,COc1cc(OC)nc(CN2C(=O)CC3(C2=O)C(=O)N(CC(=O)c2ccccc2)c2ccc(C)cc23)n1 (centres unmarked) [CBK076059],90.8265
14,COc1cccc(NC(=O)CCN2CCN(CCO)CC2)c1 [CBK264207C],111.947
15,COC(=O)C1CCCN1C(=O)C1(Oc2ccc(C)cc2)CCNCC1 (centres unmarked) [CBK306655],78.054
16,COc1ccc(CCNc2c3c(c(C#N)c4nc5ccccc5n24)CCC3)cc1OC [CBK263147],74.0401
17,Cc1c(NC(=O)c2ccccc2Cl)c(=O)n(-c2ccccc2)n1C [CBK088068],95.1379
18,OC(COc1cccc2c1CCCC2)CN1CCC(O)(c2ccccc2)CC1 (centres unmarked) [CBK003585],62.3145
19,COC(=O)CCc1ccc(S(=O)(=O)N2CCCN(Cc3ccc(C)o3)CC2)cc1 [CBK063081],108.275
20,Oc1ccc2ccccc2c1/C=N/Nc1nc(NCc2ccccc2)nc(N2CCOCC2)n1 [CBK261233],93.6011
21,O=C1CC(c2ccccc2)n2nc(C(F)(F)F)nc2N1 (centres unmarked) [CBK288063],105.989
22,O=C(O)c1cc(C(=O)O)c2ccccc2n1 [CBK262304],93.7991
23,Cc1cc(C)n(-c2nc3ccccc3nc2N2CCN(S(=O)(=O)c3ccc(F)c(C)c3)CC2)n1 [CBK268508],94.8205
24,COc1ccc([C@@]23CC=C(N(Cc4ccccc4)C(=O)Nc4ccc(F)c(F)c4)C[C@@H]2N(C)CC3)cc1OC [CBK050179],24.3541
25,Cc1ccc(S(=O)(=O)Cc2ccc(C(=O)NCc3ccco3)cc2)cc1 [CBK268630],84.0239
26,CS(=O)(=O)N1CC2(CCN(Cc3cccnc3)CC2)c2ccccc21 [CBK084006],93.8763
27,COc1ccccc1-c1ccc(CC2(C(=O)NCc3cccs3)CCOCC2)cc1 [CBK286517],93.297

row,Structure (SMILES),% of control remaining
1,O=C(Nc1cccc(C(F)(F)F)c1)c1ccc(N2CCNCC2)c([N+](=O)[O-])c1 [CBK266274],73.9746
2,Nc1ncc(-c2ccc(O)cc2)nc1N1CCN(CCO)CC1 [CBK063685],106.142
3,O=C(NCc1ccc([N+](=O)[O-])cc1)c1cccnc1NCc1ccc2c(c1)OCO2 [CBK153436],0.1467
4,CCn1c(=O)n(CC(=O)N2CCCC3CCCCC32)c2cccnc21 (centres unmarked) [CBK283893],101.449
5,O=C(NC1CCCC1)c1ncoc1-c1ccccc1 [CBK281937],46.7375
6,O=C(Nc1ccc2c(c1)OCO2)N1CCN(c2ccc(F)cc2)CC1 [CBK270332],97.6993
7,Cn1ccnc1C1(O)CC2CCC(C1)N2C(=O)NC1CCCCC1 (centres unmarked) [CBK284049],101.192
8,CN(C)S(=O)(=O)c1cc(C(=O)Nc2ccc(C(=O)O)cc2)c(Cl)cc1Cl [CBK266783],86.7404
9,OC(Cn1c(Cc2ccccc2)nc2ccccc21)Cn1c2ccc(Cl)cc2c2cc(Cl)ccc21 (centres unmarked) [CBK262546],91.9997
10,O=C(CSC1c2ccccc2Sc2ccccc21)Nc1ccc(C(=O)O)cc1 [CBK267542],89.0604
11,Cc1ccc(CS(=O)(=O)N(CC(C)C)C2CC2)c(F)c1 [CBK306460],34.7074
12,Cc1cc(Cl)ccc1OC(C)C(=O)NCc1ccccn1 (centres unmarked) [CBK265441],112.517
13,Cc1cccc(-c2ocnc2C(=O)NC(C)c2ccccn2)c1 (centres unmarked) [CBK282427],109.199
14,Cc1noc(C)c1COc1ccc(C(=O)N[C@@H]2CN(C(=O)NC(C)C)CCC[C@H]2O)cc1 [CBK289069],71.6293
15,CCc1noc(C)c1C(=O)Nc1cccc(Cn2cc(Cl)cn2)c1 [CBK268127],107.507
16,CS(=O)(=O)c1ccc2nc(NC(=O)c3ccco3)sc2c1 [CBK287341],132.659
17,Cc1ccccc1N1CCN(C(=O)c2nn[nH]c2Nc2ccccc2F)CC1 [CBK288032],78.5822
18,CCCOC1CCCN(Cc2cn(CC(N)=O)c3ccccc23)C1 (centres unmarked) [CBK282796],75.6962
19,Cc1nn2cc(-c3n[nH]cc3[N+](=O)[O-])cnc2c1C(N)=O [CBK268957],91.0525
20,OCCN1CCN(c2nc(-c3cc(Cl)cc(Cl)c3)cn3ccnc23)CC1 [CBK066558],82.0627
21,CC(C)Nc1nccnc1Sc1ccc(N)cc1 [CBK089485],104.658
22,COc1cccc(CC(=O)N2C3CCC2CC(O)(c2ccco2)C3)c1 (centres unmarked) [CBK284053],71.9993
23,Cc1nn(-c2cccc(C(=O)NC3CCCOC3)c2)c(C)c1Cl (centres unmarked) [CBK282512],109.396
24,CN1CCCN(c2ccc(NS(=O)(=O)c3cccc(F)c3)c3ccccc23)CC1 [CBK200010C],2.255
25,Cc1nc(C)c(C(=O)NCCN2CCCCC2C)s1 (centres unmarked) [CBK282200],91.9102
26,O=C(NCCc1ccc(S(=O)(=O)NC(=O)NC2CCCCC2)cc1)NC1CCCCC1 [CBK011926],69.1357
